PubChem BioAssay AID1454 (National Center for Advancing Translational Sciences (NCATS), 2008)
The campaign covered roughly 130,000 compounds. About 550 (0.42%) were called active. Inconclusive means that the source gave no clear call. Such entries were picked first, then a sample of the others. Calls come from the whole dose curve; as a rule, active = well fitted inhibition curve with a large enough effect; inconclusive = small, poorly fitted or top-dose-only effect, or effect the other way; inactive = flat fitted curve, though single readings scatter. Potencies of inconclusive entries are left out as doubtful fits.

Test: qHTS Assay for Inhibitors of the ERK Signaling Pathway using a Homogeneous Screening Assay; Stimulation with EGF; note: nearly all actives have a fitted effect of over 55% in size
Conditions: HEK293-V1b, EGF-stimulated phospho-ERK AlphaScreen
How it was run: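 Concentration-response of compounds against EGF-driven ERK phosphorylation in V1b-expressing HEK293 cells; 30 min preincubation, 5 min EGF, AlphaScreen detection; Normalized to DMSO basal and 25 nM EGF.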
Potency is the fitted concentration of half-maximal effect; tags give direction and shape of the fitted curve.

Structure (SMILES) | Potency
CCN(CC)c1ccc([C@H]2[C@@H]3CCCC[C@]3(O)CCN2CC(=O)NCc2ccco2)cc1 | inconclusive [inhibitor, single point]
O=C(NCc1ccccc1Cl)C1CCN(c2cnccn2)CC1 | inactive
COC(=O)[C@@]1(Cc2ccc(F)cc2)[C@H]2c3cc(C(=O)N(C)C)n(Cc4ccccc4)c3C[C@H]2CN1C(=O)c1ccccc1 | inactive
C#CCOCCOCCOCCNc1nc(N2CCN(C(=O)Cn3cc(CCCN=C(N)N)nn3)CC2)nc(N2CCN(C(=O)[C@H](C)n3cc(CCCN=C(N)N)nn3)CC2)n1 | inconclusive [inhibitor, single point]
COc1ccc(CSCCc2n[nH]c(=S)n2-c2ccccc2)cc1 | inconclusive [activator, full curve, poor fit]
NS(=O)(=O)c1ccc(NN=C2CCN(Cc3ccccc3)CC2)c([N+](=O)[O-])c1 | inconclusive [inhibitor, partial curve]
Cc1[nH]c2c([N+](=O)[O-])cccc2c1C | inconclusive [inhibitor, partial curve]
COCC(=O)Nc1cc(C(=O)NCC(C)C)ccc1Cl | inactive
COc1ccc(CNCCC2(C(C)C)CCOC(C)(C)C2)cc1 (centres undefined) | inconclusive [inhibitor, single point]
COC(=O)[C@H]1O[C@@H](c2cc(OC)c(C)c(OC)c2OCc2ccccc2)[C@H](C)[C@@H]2O[C@]12C | inactive
COc1ccc(CCN2C(=O)CC(NNc3ccc([N+](=O)[O-])cc3)C2=O)cc1OC (centres undefined) | inconclusive [inhibitor, single point]
C=C(C)C(=O)OC[C@@H]1CCC[N@+]2(C)CCCCC12 (some centres undefined) | inactive
O=C(NN1C(=O)/C(=C\c2ccc(O)c([N+](=O)[O-])c2)SC1=S)c1ccccc1Cl | inconclusive [inhibitor, partial curve]
Cc1ccc(OCC(=O)Nc2cccc(S(=O)(=O)N3CCCCCC3)c2)c([N+](=O)[O-])n1 | inconclusive [inhibitor, single point]
O=C(COc1cccc2ccccc12)NCc1cccnc1 | inconclusive [inhibitor, single point]
O=C(CSc1nc2nn(-c3ccccc3)c(=O)c-2c2n1CCCCC2)NCCCc1ccccc1 | inconclusive [inhibitor, single point]
S=C1NCN(Cc2cccnc2)CN1Cc1ccccc1 | inconclusive [inhibitor, full curve, poor fit]
O=C(Cc1csc(NC(=O)c2ccc(F)cc2)n1)NO | inactive
O=[N+]([O-])c1ccc(C(=S)N2CCC(Cc3ccccc3)CC2)cc1 | inconclusive [inhibitor, partial curve]
COc1ccc(CCNc2cc(N3CCN(C(=O)c4ccc(C)cc4)CC3)ccc2[N+](=O)[O-])cc1OC | inconclusive [inhibitor, partial curve]
Cc1ccc(-c2nn(-c3ccccc3)cc2C=C2C(=O)CC(C)(C)CC2=O)cc1 | inconclusive [inhibitor, single point]
O=C(Nc1nc2ccc(C(=O)N3CCCCC3)cc2s1)C1CCCCC1 | inconclusive [inhibitor, single point]

Structure (SMILES) | Potency
COCCn1c(-c2ccccc2)cnc1SCC(=O)Nc1cccc2ccccc12 | inconclusive [inhibitor, single point]
C=CC(C)(O)CC1[C@@]2(C)CCCC(C)(C)C2CC[C@]1(C)O (some centres undefined) | inactive
COCCOC(=O)C1=C(C)NC(=O)NC1c1ccc(-c2cc(Cl)ccc2Cl)o1 (centres undefined) | inconclusive [inhibitor, partial curve]
COc1ccc(-c2ccc(N(C)C)cc2)cc1[C@H]1[C@H]2C=CC[C@@H](C)[C@@H]2C(=O)N1Cc1ccccc1 | inconclusive [inhibitor, partial curve]
O=C(OC1Cc2c(O)cc(O)cc2OC1c1cc(O)c(O)c(O)c1-c1c(C2Oc3cc(O)cc(O)c3CC2O)cc(O)c(O)c1O)c1cc(O)c(O)c(O)c1 (centres undefined) | inactive
COc1ccc(/C=C/c2nnc(NC(=O)C(C)C)s2)cc1 | inactive
O=C(NC1CCN(Cc2ccccc2)CC1)c1ccc(Oc2cc(Cl)cc(Cl)c2)o1 | inconclusive [inhibitor, partial curve]
CCC1CCCCN1CC(C)(C)NS(=O)(=O)c1ccccc1 (centres undefined) | inactive
Cc1ccc(OCCNS(=O)(=O)c2ccc(N3CCCC3=O)cc2)cc1 | inactive
CSCC[C@H](NC(=O)c1ccc(Cl)c([N+](=O)[O-])c1)c1nc2ccccc2[nH]1 | inconclusive [inhibitor, single point]
S=C(NCc1ccco1)N1CCN(c2nc(-c3ccccc3)cs2)CC1 | inconclusive [inhibitor, single point]
COc1ccc(NC(=O)COC(=O)C2CCC(C(C)(C)C)CC2)c([N+](=O)[O-])c1 (centres undefined) | inconclusive [inhibitor, partial curve, poor fit]
COc1ccc(-n2nc([N+](=O)[O-])c(=NCCc3cccc(C)c3)n2O)cc1 | inconclusive [inhibitor, partial curve]
c1ccc(-c2nc(-c3ccccc3)c(Nc3ccc4ccccc4c3)o2)cc1 | inactive
Cc1ccc(Nc2cc(C)nc3c(C)ccc([N+](=O)[O-])c23)cc1 | inconclusive [inhibitor, partial curve]
C[C@@H]1C[C@](C)(C(=O)c2ccc3ccccc3c2)C=C1c1ccc2ccccc2c1 | inactive
Clc1ccccc1-c1nccc(-n2ccnc2)n1 | inactive
N#CC(c1nc2ccccc2nc1N1CCOCC1)S(=O)(=O)c1ccccc1 (centres undefined) | inactive
N#Cc1ccc(-c2csc(NC(=O)/C=C/c3cccs3)n2)cc1 | inconclusive [inhibitor, partial curve]
CCCCn1c(O)c(/C=C/C=C/C=Nc2ccccc2)sc1=S | inconclusive [inhibitor, partial curve]
Cc1cccc(CNc2ncnc3ccc(-c4ccc(C(=O)N(C)C)cc4)cc23)c1 | inconclusive [inhibitor, partial curve, poor fit]
Cc1cc(NC(=O)c2cc3cccc([N+](=O)[O-])c3[nH]2)ccc1F | inconclusive [inhibitor, single point]

Structure (SMILES) | Potency
CN1C(=O)CC(C(=O)O)SC1=Nc1cccc(C(F)(F)F)c1 (centres undefined) | inconclusive [inhibitor, full curve]
CCc1cccc(C)c1NC(=S)NCC1CCN(c2ccc(OC)cc2)C1 (centres undefined) | active: 10 µM
Nc1nc(N)c2cc(Sc3ccc4ccccc4c3)ccc2n1 | inconclusive [inhibitor, single point]
Cc1cc2ccccn2c1C(C[N+](=O)[O-])c1ccc(N(C)C)cc1 (centres undefined) | inconclusive [inhibitor, single point]
CC1=NN(c2ccccc2)C(=O)/C1=C\c1cn(CCC#N)nc1-c1ccc(Cl)cc1 | inconclusive [inhibitor, single point]
COc1ccc(C(=O)C2CCCCC2=O)cc1 (centres undefined) | inconclusive [inhibitor, partial curve]
COc1ccc(/C=C(\C#N)C(=O)Nc2cccc3ncccc23)cc1OC | inconclusive [inhibitor, single point]
NC(=S)Nc1cccc2[nH]ccc12 | inconclusive [inhibitor, partial curve]
CCN(CC)c1ccc(/C=C/C(=O)c2ccc(Br)cc2)cc1 | inconclusive [activator, partial curve]
O=S(=O)(NCCC1=CCCCC1)c1cccc2nsnc12 | inconclusive [inhibitor, partial curve]
CO[C@@H]1CC[C@@]2(C)[C@@H](CC[C@@]3(C)[C@H]2CC=C2[C@H]4CC(C)(C)[C@H](O)[C@@H](OC(C)=O)[C@]4(CO)[C@H](O)C[C@]23C)[C@@]1(C)CO (tested in a mixture with another compound) | inconclusive [inhibitor, single point]
COc1ccc(/C=C/C(=O)c2ccc3ccccc3c2O)cc1CN1CCOCC1 | inconclusive [inhibitor, single point]
CCOC(=O)c1sc(NC(=O)Nc2ccccc2)cc1C | inconclusive [inhibitor, single point]
CCOC(=O)Cc1csc(NC(=O)COc2cc(C)cc(C)c2)n1 | inconclusive [inhibitor, partial curve]
N#C/C(=C\c1ccc(Sc2ccccc2)o1)c1nc2ccccc2[nH]1 | inconclusive [inhibitor, single point]
CC#CCOC(=O)C1=CCCN(C)C1 | inactive
C/C(=N\NC(=O)c1cc(-c2ccncc2)nc2ccccc12)c1ccc(N2CCOCC2)cc1 | inactive
Cc1cc(/C=N/Nc2ncnc(N)c2[N+](=O)[O-])c(C)n1-c1ccccc1 | inconclusive [inhibitor, partial curve, poor fit]
Cn1c2[n+](c3ccc(Cl)cc3c1=O)Cc1ccccc1-2 | inconclusive [inhibitor, single point]
O=C(CSc1cccc[n+]1[O-])Nc1ccc(C(F)(F)F)cc1[N+](=O)[O-] | inactive
